{"source": "ChEMBL document CHEMBL4888484", "about": "“Replenishing the malaria drug discovery pipeline: Screening and hit evaluation of the MMV Hit Generation Library 1 (HGL1) against asexual blood stage Plasmodium falciparum ,using a nano luciferase reporter read-out” (2022)", "note": "Hit rate of the full screen: of about 150,000 compounds, about 540 (0.36%) showed an effect of 50% or more. The list shows a part of the results."}
{"test_system": "Plasmodium falciparum", "experiment": "Primary screen in NF54 nanoGlo assay, in single point, at 2uM, 72h; a lower Z score goes with more inhibition", "assay_type": "functional, Erythrocyte", "conditions": "timepoint 72 hour", "units": {"% Inhibition": "%"}}
{"smiles": "O=c1ccccn1CCNc1ncc(Br)cn1", "% Inhibition": -7, "Z score": 0.79}
{"smiles": "CCO[C@H]1CCCN(C(=O)CN2C(=O)NC3(CCCC3)C2=O)C1", "% Inhibition": 0, "Z score": -0.03}
{"smiles": "c1ccc(Cn2ccnc2CN2CCN3CCCC[C@H]3C2)cc1", "% Inhibition": -15, "Z score": 1.59}
{"smiles": "COc1ccccc1Cc1nc([C@H]2CCCNC2)n(-c2cccnc2)n1", "% Inhibition": 6, "Z score": -0.64}
{"smiles": "Cc1ccc(C)c2c(C)c(C(=O)N3CCC[C@@]4(CCCO4)CC3)[nH]c12", "% Inhibition": -7, "Z score": 1.32}
{"smiles": "COc1cc2c(cc1OC)C1(CCCC1)CN(CCC(C)=O)C2", "% Inhibition": -1, "Z score": 0.1}
{"smiles": "CCc1nc(NC(=O)NCc2nc(C)c(C)s2)nn1C", "% Inhibition": -10, "Z score": 1.25}
{"smiles": "C[C@@H]1OCCO[C@@H]1C(=O)Nc1cncc2ccccc12", "% Inhibition": 6, "Z score": -0.69}
{"smiles": "C=CCN(Cc1nc(-c2cccc(Cl)c2)oc1C)[C@H]1CCS(=O)(=O)C1", "% Inhibition": -25, "Z score": 3.71}
{"smiles": "O=C(Cc1ccccc1)NCc1ccc(Cn2cccn2)cc1", "% Inhibition": -7, "Z score": 0.91}
{"smiles": "O=C([C@H]1CCCN(c2c(-c3ccccc3)c3cc(Cl)ccc3[nH]c2=O)C1)N1CCc2ccccc2C1", "% Inhibition": -19, "Z score": 2.92}
{"smiles": "O=C(NC[C@H]1CCc2ccccc2O1)c1cnc(-c2cccnc2)nc1", "% Inhibition": -21, "Z score": 3.46}
{"smiles": "CCCOCc1ccccc1CN=C(NC)NC", "% Inhibition": 5, "Z score": -0.55}
{"smiles": "CCCCC[C@H](C)NC(=O)CS(=O)(=O)Cc1c(C)noc1C", "% Inhibition": -1, "Z score": 0.08}
{"smiles": "CCN(CCOc1cccc(Cl)c1)C(=O)CN1C(=O)CN(C)C1=O", "% Inhibition": -13, "Z score": 2.31}
{"smiles": "CCOC(=O)N1CCc2c(c3ccccc3n2Cc2ccccc2)C1", "% Inhibition": 0, "Z score": -0.07}
{"smiles": "Cc1c(C(=O)NCc2ccccc2)c2ccccn2c1C(=O)c1ccc(Cl)cc1", "% Inhibition": -14, "Z score": 1.61}
{"smiles": "COCc1nc(CN(C)Cc2nccn2CC(F)(F)F)cs1", "% Inhibition": 1, "Z score": -0.11}
{"smiles": "CN(C(=O)NCCc1ccc2c(c1)CCO2)C1CC[S+]([O-])CC1", "note": "(stereo unspecified)", "% Inhibition": 1, "Z score": -0.07}
{"smiles": "Cn1ccnc1[C@H](NC(=O)c1ccc(Cl)c(NC(=O)c2cccs2)c1)c1ccc(Cl)cc1", "% Inhibition": 2, "Z score": -0.22}
{"smiles": "Nc1ncccc1CN1C[C@H](NC(=O)C2CCOCC2)[C@@H](C2CC2)C1", "% Inhibition": 3, "Z score": -0.62}
{"smiles": "FC(F)(F)c1ccc(N2CC(Nc3nccn4nnnc34)C2)cc1", "% Inhibition": -11, "Z score": 1.07}
{"smiles": "CCn1ncnc1[C@@H]1CC(=O)Nc2cc3c(cc21)CCc1ccccc1N3", "% Inhibition": -3, "Z score": 0.42}
